Out of some 150,000 compounds screened, about 540 (0.36%) showed an effect of 50% or more. The list shows a part of the results.
Test system: Plasmodium falciparum
Test: Primary screen in NF54 nanoGlo assay, in single point, at 2uM, 72h; a lower Z score goes with more inhibition
Assay type: functional, Erythrocyte
Conditions: timepoint 72 hour

Structure (SMILES)	% Inhibition	Z score
CCCn1c(=O)cc(C(C)C)c2ccc(OCC(=O)NCc3ccc4c(c3)OCO4)cc21	-7%	0.92
COCCNC(=O)c1cc2cc(NC(=O)C3CCC3)ccc2n1Cc1cccc(F)c1	1%	-0.07
CC(C)Oc1ccc(F)cc1NC(=O)N(CCO)CCO	29%	-3.22
Cc1cc(C(=O)Nc2cccc3cccnc23)on1	-4%	0.32
O=C(c1cccc(O)c1)N1CCc2c(CN3CCCC3)cccc21	-4%	0.69
CCO[C@H]1COC[C@@H]1NC(=O)N1CCC(Oc2ncccn2)CC1	-23%	1.99
Cc1ccc(CN(Cc2nc(C(=O)NCc3ccc(F)cc3)co2)[C@@H](C)C(C)C)c(C)c1	-1%	0.06
C[C@@H](Cc1ccoc1)NC(=O)Nc1cccc(Cl)c1	-4%	0.55
CN(Cc1ccc(F)cc1)C(=O)Cn1c(C(F)(F)F)ccc(C(N)=O)c1=O	-2%	0.18
CC(C(=O)N1C2CCC1CC(=O)NC2)N(C)CC(F)(F)F (stereo not given)	32%	-3.58
Cc1csc([C@@H](C)CNC(=O)NCCc2ccco2)n1	-11%	1.55
CCc1noc(C)c1C(=O)Nc1sc(C)c(-c2ccc(OC)cc2)c1C#N	-13%	1.17
O=S(=O)(N[C@@H]1CCCOC1)c1c(F)cccc1OC(F)(F)F	3%	-0.45
COCCN1CCCN(c2ncnc3onc(C)c23)CC1=O	0%	-0.01
C[C@H]1CN(Cc2nnn(CC(F)(F)F)n2)c2ccccc2O1	-7%	1.08
O=C(CCn1cnnn1)N1CCc2[nH]nc(-c3ccc4c(c3)OCO4)c2C1	-10%	2.08
Cc1cc2ncc3c(n2n1)CCN(C(=O)c1cccnc1)C3	-2%	0.32
CN(CCC1CCOCC1)Cc1ccc(Cl)o1	-13%	2.68
Cc1ncc(NC(=O)c2cccc(Cl)c2Cl)s1	-11%	1.1
CCOc1ccc2c(c1)[C@@H](NC(=O)c1cn(-c3ccc(C)cc3)nn1)CCO2	7%	-1
FC(F)(F)CCN(c1ncc(Br)cn1)C1CCC1	-1%	0.17
Cn1ccnc(Nc2cnn(-c3ccc(C(F)(F)F)cc3)c2)c1=O	-8%	1.24
O=C1NC2(CCCCC2)C(=O)N1Cc1ccccc1Oc1ccccc1	10%	-1.18
CN(Cc1cc[nH]n1)c1nc(-c2cccnc2)nc2c1CCNCC2	3%	-0.32
CC(C)C[C@H]1NC(=O)[C@H]2CN(S(=O)(=O)c3ccc4ccccc4c3)CCN2C1=O	-3%	0.55
Cc1cc(C)cc(OCC(=O)N2CCN(c3snc(C)c3C#N)CC2)c1	-19%	2.4
CN(C[C@H]1CCCCO1)c1ccc2cc[nH]c2n1	-3%	0.6
Cn1nc(C2CC2)cc1N1CCN(S(=O)(=O)c2ccccc2)CC1	10%	-1.37

Structure (SMILES)	% Inhibition	Z score
CCOC(=O)C1CCCN(CC(=O)N2CCCC2CC(=O)OC)C1 (stereo not given)	2%	-0.35
Cc1nnc(NCC2(N3CCOCC3)CCCCCC2)o1	12%	-1.55
Cc1nn(C)c(C)c1S(=O)(=O)NC(=O)[C@@H](C)Cc1cccs1	-7%	1.05
Cc1cc(C(=O)Nc2nc(C)cs2)on1	-13%	2.13
COc1ccc(NC(=O)C[C@H]2Cn3cccc3C2=O)cc1	-9%	1.08
CCCN(CC(F)(F)F)C(=O)c1[nH]c(C)c(C(=O)OCCOC)c1C	-12%	1.92
Cc1noc(OCc2cc(O)cc(C(F)(F)F)c2)n1	-8%	1.15
O=C(c1cccc[n+]1[O-])N1CCCCCCC1	4%	-0.6
Cc1nc(C(=O)N[C@@H](C)C(C)(F)F)c[nH]1	-16%	1.88
Nc1nccnc1C(=O)N1CCCCO1	-1%	0.09
Cn1cccc(C(=O)NC2CCN(c3cc(C4CC4)[nH]n3)CC2)c1=O	-3%	0.59
O=C(C[C@H]1CCOC1)NC1(C2CCCCC2)CC1	1%	-0.17
C=CCNC(=O)[C@H](C)N(C)CCOc1ccccc1	6%	-0.77
COc1ccc(C(C)CC(=O)N2CCCC2C2COCCC2(C)O)cc1 (stereo not given)	-3%	0.51
CC1CC1N1CC(NC(=O)c2ncn(C(C)(C)C)n2)CC1=O (stereo not given)	-7%	1.3
COc1ccc(C(F)(F)F)cc1NC(=O)c1ccc(-n2cncn2)nn1	-1%	0.09
O=C(c1cc(C2CC2)[nH]n1)N1CCCN(C[C@H]2CCCO2)CC1	0%	-0.01
COC(=O)c1nc(NC(=O)c2c(C)nn([C@H]3CCS(=O)(=O)C3)c2C)sc1C	-10%	1.19
O=C(c1n[nH]c2c1COc1ccccc1-2)N1CCN(Cc2ccc3c(c2)OCO3)CC1	-6%	0.9
COc1nc(N2CCn3nc([C@@H](O)CS(C)(=O)=O)cc3C2)ncc1F	3%	-0.29
Cn1ccnc1CN1C[C@@H](COc2cccc(C(F)(F)F)c2)C[C@@H](C(=O)NC2CCCCC2)C1	-19%	2.23
CCN1C(=O)CCc2cc(N[C@@H](C)c3nccn3C)ccc21	-10%	1.11
CN(C)[C@@H]1C[C@@H](CO)N(C(=O)c2cccc(Oc3ccccc3)c2)C1	-2%	0.26
C[C@H]1C[C@H](NC(=O)c2sccc2F)c2ccsc2S1(=O)=O	-11%	1.06
Cc1ccc(C(=O)N2CCOc3ccc(C(=O)N4CCOCC4)cc3C2)cc1F	0%	0
Cc1ccc(-c2nc(CC(=O)Nc3ncc(C)s3)cs2)o1	-13%	1.83
O=C(c1cccnc1-c1cnc2ccccc2c1)N1CCCC1	-9%	1.68

From ChEMBL document CHEMBL4888484, “Replenishing the malaria drug discovery pipeline: Screening and hit evaluation of the MMV Hit Generation Library 1 (HGL1) against asexual blood stage Plasmodium falciparum ,using a nano luciferase reporter read-out” (2022)
